These are yes or no findings as the source states them, for the method shown. In cells and extracts the contact can be indirect. Some results given as binding are weak or reduced against the parent protein; the word gives no strength. Sequences can lack the tags named with a protein.

Protein sequences, listed by entry. Tags and fused reporters are not part of them.
UniProt Q9SN12: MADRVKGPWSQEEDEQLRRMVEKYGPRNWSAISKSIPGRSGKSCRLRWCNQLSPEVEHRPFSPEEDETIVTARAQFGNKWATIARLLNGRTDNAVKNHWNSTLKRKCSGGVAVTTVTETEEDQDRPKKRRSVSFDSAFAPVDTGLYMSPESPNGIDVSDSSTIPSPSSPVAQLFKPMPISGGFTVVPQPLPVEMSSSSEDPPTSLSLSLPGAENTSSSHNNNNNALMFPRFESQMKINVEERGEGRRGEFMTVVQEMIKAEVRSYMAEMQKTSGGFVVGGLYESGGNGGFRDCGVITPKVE

In test [1] the target is T1, SnRK1α2 fused to the N-terminal or C-terminal half of YFP (BiFC) (Arabidopsis thaliana) (UniProt P92958).
T1 sequence: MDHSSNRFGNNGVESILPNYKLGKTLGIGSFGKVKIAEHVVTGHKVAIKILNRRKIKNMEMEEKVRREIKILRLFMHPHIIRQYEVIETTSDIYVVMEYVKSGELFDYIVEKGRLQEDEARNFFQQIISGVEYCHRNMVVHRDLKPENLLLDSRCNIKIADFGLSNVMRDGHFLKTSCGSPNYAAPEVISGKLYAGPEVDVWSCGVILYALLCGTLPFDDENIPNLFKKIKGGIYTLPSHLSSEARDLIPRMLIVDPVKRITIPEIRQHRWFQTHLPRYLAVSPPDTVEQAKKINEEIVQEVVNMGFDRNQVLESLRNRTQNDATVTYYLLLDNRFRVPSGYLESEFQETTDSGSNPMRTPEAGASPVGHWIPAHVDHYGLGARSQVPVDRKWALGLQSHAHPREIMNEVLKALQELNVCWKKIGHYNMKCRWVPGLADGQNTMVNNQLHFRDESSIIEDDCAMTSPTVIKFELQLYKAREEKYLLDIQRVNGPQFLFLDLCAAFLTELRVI
The test can be described thus: split reporter; BiFC with split YFP in Nicotiana benthamiana leaves infiltrated with Agrobacterium GV2260; fluorescence seen after 72 h by confocal microscopy; both halves of YFP on each partner.

In test [2] the target is T2, SnRK1α1 fused to the N-terminal or C-terminal half of YFP (BiFC) (Arabidopsis thaliana) (UniProt Q38997).
T2 sequence: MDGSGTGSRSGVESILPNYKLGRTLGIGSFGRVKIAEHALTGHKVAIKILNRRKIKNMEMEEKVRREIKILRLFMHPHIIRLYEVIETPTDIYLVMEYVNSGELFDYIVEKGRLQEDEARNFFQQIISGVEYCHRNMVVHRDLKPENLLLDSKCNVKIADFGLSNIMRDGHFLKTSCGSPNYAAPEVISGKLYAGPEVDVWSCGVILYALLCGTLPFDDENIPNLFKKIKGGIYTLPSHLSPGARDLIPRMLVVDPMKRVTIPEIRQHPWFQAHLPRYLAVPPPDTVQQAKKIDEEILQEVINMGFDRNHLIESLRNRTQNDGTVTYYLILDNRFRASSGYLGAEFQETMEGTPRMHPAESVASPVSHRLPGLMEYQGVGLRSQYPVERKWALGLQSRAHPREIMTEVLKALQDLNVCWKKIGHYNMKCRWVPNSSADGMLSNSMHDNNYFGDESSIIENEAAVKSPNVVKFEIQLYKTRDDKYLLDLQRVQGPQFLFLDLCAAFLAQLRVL
The test is described as above.

Turning to “MYB77 fused to the N-terminal or C-terminal half of YFP (BiFC) (from UniProt Q9SN12 1-301)”, the values for the binding entry in test [1] and in test [2] were “no binding” and “binds”, respectively.

B1: AFP2 fused to the N-terminal or C-terminal half of YFP (BiFC) (protein, UniProt Q9LMX5 1-348)
chain: MGEASRQQRAWNREMTVTTNLSLDIDKYPRDLLRGFMSENGGGRVFHGGETNCDDESTIELNLGLSLGGRFGVDKTPRKLKRSSSVLDTVPFNDSTVAEPENYTVGLERTTSLPAEMEEEWRKRKEMQSLRRMEAKRRRCEKQSFRVGNSDDQTVSFENERWVTASKSGFLQRHLVSSNRQVCGVDSDGGGATGGGSSSSLSELDNKNQQGSSNSCNDERSPKIVAGCSSNSGSQGTERPSVTRANKVNENENEKRVRSEDSVDRKGKGMATSTGLVDMPCVFTKGDGPNGRRVDGILYKYGKGEEVRIMCICHGSFLTPAEFVKHGGGGDVDRPLRHIVVNTSSSTF
As to B1, the binding entry in test [1] and in test [2] was “binds” throughout.

B2: ANAC055 fused to the N-terminal or C-terminal half of YFP (BiFC) (protein, UniProt Q9LDY8 1-317)
chain: MGLQELDPLAQLSLPPGFRFYPTDEELMVEYLCRKAAGHDFSLQLIAEIDLYKFDPWVLPSKALFGEKEWYFFSPRDRKYPNGSRPNRVAGSGYWKATGTDKVISTEGRRVGIKKALVFYIGKAPKGTKTNWIMHEYRLIEPSRRNGSTKLDDWVLCRIYKKQTSAQKQAYNNLMTSGREYSNNGSSTSSSSHQYDDVLESLHEIDNRSLGFAAGSSNALPHSHRPVLTNHKTGFQGLAREPSFDWANLIGQNSVPELGLSHNVPSIRYGDGGTQQQTEGIPRFNNNSDVSANQGFSVDPVNGFGYSGQQSSGFGFI
Regarding B2, the binding result in test [1] and in test [2] was “no binding” in each case.

B3: SnRK3.22 fused to the N-terminal or C-terminal half of YFP (BiFC) (protein, UniProt O22932 1-435)
chain: MPEIEIAAGSGDNNDALFGKYELGKLLGCGAFAKVFHARDRRTGQSVAVKILNKKKLLTNPALANNIKREISIMRRLSHPNIVKLHEVMATKSKIFFAMEFVKGGELFNKISKHGRLSEDLSRRYFQQLISAVGYCHARGVYHRDLKPENLLIDENGNLKVSDFGLSALTDQIRPDGLLHTLCGTPAYVAPEILSKKGYEGAKVDVWSCGIVLFVLVAGYLPFNDPNVMNMYKKIYKGEYRFPRWMSPDLKRFVSRLLDINPETRITIDEILKDPWFVRGGFKQIKFHDDEIEDQKVESSLEAVKSLNAFDLISYSSGLDLSGLFAGCSNSSGESERFLSEKSPEMLAEEVEGFAREENLRMKKKKEEEYGFEMEGQNGKFGIGICISRLNDLLVVVEARRRGGDGDCYKEMWNGKLRVQLIRVCDQTSSTNAAI
Regarding B3, the binding entry in test [1] and in test [2] was “binds” throughout.

The values above are taken from publication PMC7099082.
